According to patent publication US5858992A, “Non-reducing saccharides, their preparation and use” (Kabushiki Kaisha Hayashibara Seibutsu Kagaku Kenkyujo, priority 1995, dated 1999):

How the values were obtained:
[1] = test system: bifid bacteria; assay: Influence on growth-promoting activity for bifid bacteria in vivo (healthy volunteers, feces); parameters: species or system human
Protocol: The weight of daily feces before and after the 14-day administration tests, the relative change of feces' weight, the feces' pH, the total number of microorganisms per g of feces, the percentage of the number of bifid bacteria to the total number of microorganisms in feces, and the relative change of the total number of bifid bacteria were measured, followed by calculating the mean value of the five volunteers. Among these measurements, the total number of microorganisms was determined in accordance with the method as reported in "A Color Atlas of Anaerobic Bacteria", pp.53-65 (1984), edited by Tomotari MITSUOKA, published by Kabushiki Kaisha Sobunsha, Tokyo, Japan (1984): The colonies grown in 13 different types of media excluding M10 medium were judged for which genus they belong to and counted for cells. The cell count obtained with a specific medium, which gave the highest number of microorganisms for each genus, was determined to be a real cell count. The total cell count of microorganisms of all the genera was determined to be the total number of microorganisms in each volunteer's feces.

[2] = test system: Bifidobacterium bifidum JCM 1255; assay: Assimilation test by intestinal microorganism; format: cell-based; conditions: 0.5 w/v % saccharide in PYF broth, 37° C., 96 hours; free of sugar: -
[3] = test system: Enzyme from small intestinal mucus membrane
[4] = test system: Bifidobacterium adolescentis JCM 1275; assay: Assimilation test by intestinal microorganism; format: cell-based; conditions: 0.5 w/v % saccharide in PYF broth, 37° C., 96 hours; free of sugar: -
[5] = target: T1, Salivary amylase (Homo sapiens, UniProt P0DUB6); assay: in vitro
T1 sequence (P0DUB6 16-511): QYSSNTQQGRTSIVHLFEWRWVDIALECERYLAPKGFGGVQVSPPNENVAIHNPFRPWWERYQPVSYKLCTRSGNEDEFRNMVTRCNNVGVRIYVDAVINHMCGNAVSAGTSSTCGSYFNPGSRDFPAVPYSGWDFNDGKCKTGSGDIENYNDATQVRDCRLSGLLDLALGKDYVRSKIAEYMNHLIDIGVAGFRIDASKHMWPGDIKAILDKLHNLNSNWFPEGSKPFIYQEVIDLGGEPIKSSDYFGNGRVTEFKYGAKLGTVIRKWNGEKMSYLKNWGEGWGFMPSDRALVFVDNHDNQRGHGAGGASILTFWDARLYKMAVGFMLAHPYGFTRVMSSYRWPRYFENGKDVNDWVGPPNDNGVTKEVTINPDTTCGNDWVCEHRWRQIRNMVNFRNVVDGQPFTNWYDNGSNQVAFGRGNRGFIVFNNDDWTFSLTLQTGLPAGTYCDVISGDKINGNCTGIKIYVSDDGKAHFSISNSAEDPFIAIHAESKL

[6] = in vitro; conditions: gastric acid
[7] = test system: Bifidobacterium infantis JCM 1222; assay: Assimilation test by intestinal microorganism; format: cell-based; conditions: 0.5 w/v % saccharide in PYF broth, 37° C., 96 hours; free of sugar: -
[8] = test system: Lactobacillus plantarum IFO 3070; assay: Assimilation test by intestinal microorganism; format: cell-based; conditions: 0.5 w/v % saccharide in PYF broth, 37° C., 96 hours; free of sugar: -
[9] = test system: Bifidobacterium breve JCM 1192; assay: Assimilation test by intestinal microorganism; format: cell-based; conditions: 0.5 w/v % saccharide in PYF broth, 37° C., 96 hours; free of sugar: -
[10] = in vitro; conditions: small intestinal mucosa enzyme
[11] = test system: Lactobacillus fermentum IFO 3959; assay: Assimilation test by intestinal microorganism; format: cell-based; conditions: 0.5 w/v % saccharide in PYF broth, 37° C., 96 hours; free of sugar: -
[12] = test system: Bifidobacterium animalis JCM 1190; assay: Assimilation test by intestinal microorganism; format: cell-based; conditions: 0.5 w/v % saccharide in PYF broth, 37° C., 96 hours; free of sugar: -

Compound: OC[C@H]1O[C@H](OC[C@H]2O[C@H](O[C@H]3O[C@H](CO)[C@@H](O)[C@H](O)[C@H]3O)[C@H](O)[C@@H](O)[C@@H]2O)[C@H](O)[C@@H](O)[C@@H]1O [O-α-D-glucopyranosyl -(1→6)-α-D-glucopyranosyl α-D-glucopyranoside]
- Relative changes of feces' weight ([1]; After 10 g orally daily for 14 days, before = 100): 112
- Relative changes of feces' weight ([1]; […]): 100

Compound: OC[C@H]1O[C@H](OC[C@H]2O[C@H](O[C@H]3O[C@H](CO[C@H]4O[C@H](CO)[C@@H](O)[C@H](O)[C@H]4O)[C@@H](O)[C@H](O)[C@H]3O)[C@H](O)[C@@H](O)[C@@H]2O)[C@H](O)[C@@H](O)[C@@H]1O [α-Isomaltosyl α-isomaltoside, O-α-D-glucopyranosyl -(1→6)-α-D-glucopyranosyl-O-α-D-glucopyranosyl-(1→6) -α-D-glucopyranoside]
- pH of feces ([1]; After 10 g orally daily for 14 days, mean ± SD): 5.9± 0.3

Compound: OC[C@H]1O[C@H](OC[C@H]2O[C@H](OC[C@H]3O[C@H](O[C@H]4O[C@H](CO)[C@@H](O)[C@H](O)[C@H]4O)[C@H](O)[C@@H](O)[C@@H]3O)[C@H](O)[C@@H](O)[C@@H]2O)[C@H](O)[C@@H](O)[C@@H]1O [α-Isomaltotriosyl α-glucoside, O-α-D-glucopyranosyl-(1→6)-O-α-D-glucopyranosyl-(1→6) α-D-glucopyranosyl α-D-glucopyranoside]
- Judgement of assimilation (turbidity at 750 nm, ×5) [2]: ++ (0.2 or higher but less than 0.3)
- Digestibility, judgement in words [3]: relatively-low in digestibility
- Judgement of assimilation (turbidity at 750 nm, ×5) [4]: +++ (0.3 or higher)
- metabolised [5]: 0%
- degraded [6]: 0%
- Judgement of assimilation (turbidity at 750 nm, ×5) [7]: ++ (0.2 or higher but less than 0.3)
- Judgement of assimilation (turbidity at 750 nm, ×5) [8]: - (Less than 0.1)
- Judgement of assimilation (turbidity at 750 nm, ×5) [9]: +++ (0.3 or higher)
- metabolised [10]: 8.8%
- Judgement of assimilation (turbidity at 750 nm, ×5) [11]: - (Less than 0.1)
- Judgement of assimilation (turbidity at 750 nm, ×5) [12]: +++ (0.3 or higher)
